# Experimental data: a collection of fitness landscapes (doi:10.1016/j.celrep.2020.107928)
# The full ranking holds about 81,000 sequences; the median of “one-hybrid fitness for binding parS DNA” is about -0.17, and the highest 2% start at about 0.51. This is one part of the list.
# B1: Caulobacter ParB omega fusion; a variant is named by its letters at X, in order, B8GW30 (parent)
# chain: MESVVVGEPGMSEGRRGLGRGLSALLGEVDAAPAQAPGEQLGGSREAPIEILQRNPDQPRRTFREEDLEDLSNSIREKGVLQPILVRPSPDTAGEYQIVAGERAWRAAQRAGLKTVPIMVRELDDLAVLEIGIIENVQRADLNVLEEALSYKVLMEKFERTQENIAQTIGKSXSHVANXMRLLXLPDEVQSYLVSGELTAXHARAIAAAADPVALAKQIIEGGLSVRETEALARKAPNLSAGKSKGGRPPRVKDTDTQALESDLSSVLGLDVSIDHRGSTGTLTITYATLEQLDDLCNRLTRGI
# Variants of: B1
# Assay: one-hybrid fitness for binding parS DNA (scaled: cognate 1, non-cognate 0); higher = stronger binding
# Details: with parS DNA site
# In short: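 Fitness here means the log change in variant-to-wild-type read ratio between plasmids sequenced before and after selection. That scale was set so cognate equals 1 and non-cognate equals 0. The selection was a bacterial one-hybrid screen of Caulobacter ParB libraries, four specificity codons randomised, in E. coli USO carrying a HIS3 reporter with the site 19 bp from the promoter, grown 48 hours at 37°C on M9-minus-histidine with 0.1 mM IPTG and 5 mM 3-AT.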
row,Variant,one-hybrid fitness for binding parS DNA
1,DNES,≤ 0.2
2,WMTP,≤ 0.2
3,ALHC,≤ 0.2
4,LNER,≤ 0.2
5,REAT,≤ 0.2
6,RQVK,≤ 0.2
7,IGTM,≤ 0.2
8,GNMR,≤ 0.2
9,YYLC,≤ 0.2
10,ADCT,≤ 0.2
11,ERMS,≤ 0.2
12,VKRH,≤ 0.2
13,ADIG,≤ 0.2
14,AVDA,≤ 0.2
15,SASA,≤ 0.2
16,METV,≤ 0.2
17,DNRA,≤ 0.2
18,TRET,≤ 0.2
19,LEVS,≤ 0.2
20,RNIS,0.65
21,SSHY,≤ 0.2
22,HHHS,≤ 0.2
23,TTQF,≤ 0.2
24,TFQE,≤ 0.2

row,Variant,one-hybrid fitness for binding parS DNA
1,LCHM,≤ 0.2
2,HETY,≤ 0.2
3,EEKS,≤ 0.2
4,ANQE,≤ 0.2
5,PNCS,≤ 0.2
6,MENS,≤ 0.2
7,CYTA,≤ 0.2
8,NFKC,≤ 0.2
9,DLDC,≤ 0.2
10,SSGW,≤ 0.2
11,GPRA,≤ 0.2
12,LPTI,≤ 0.2
13,DDSG,≤ 0.2
14,CPGM,≤ 0.2
15,HNTC,≤ 0.2
16,ATHT,≤ 0.2
17,TNRM,≤ 0.2
18,QWHT,≤ 0.2
19,QIAR,≤ 0.2
20,PDHP,≤ 0.2
21,QILA,≤ 0.2
22,PIPC,≤ 0.2
23,NTHE,≤ 0.2
24,NKLF,≤ 0.2

row,Variant,one-hybrid fitness for binding parS DNA
1,RAMP,≤ 0.2
2,KANF,≤ 0.2
3,KCSY,≤ 0.2
4,TRAE,≤ 0.2
5,HRTE,≤ 0.2
6,HEQL,≤ 0.2
7,CTSH,≤ 0.2
8,RDRG,≤ 0.2
9,RANS,0.96
10,FGEY,≤ 0.2
11,GQAC,≤ 0.2
12,NDHY,≤ 0.2
13,FDSS,≤ 0.2
14,PHFS,≤ 0.2
15,GTEL,≤ 0.2
16,ENDM,≤ 0.2
17,RMPC,0.725
18,FRWC,≤ 0.2
19,TRMY,≤ 0.2
20,VSQK,≤ 0.2
21,AVRG,≤ 0.2
22,GRVH,≤ 0.2
23,PGDT,≤ 0.2
24,IKAF,≤ 0.2

row,Variant,one-hybrid fitness for binding parS DNA
1,LSQR,≤ 0.2
2,AYRH,≤ 0.2
3,IGHD,≤ 0.2
4,WSRD,≤ 0.2
5,TLCI,≤ 0.2
6,QGYR,≤ 0.2
7,VPYN,≤ 0.2
8,PPSL,≤ 0.2
9,RKTT,0.754
10,NAEM,≤ 0.2
11,RIAP,≤ 0.2
12,GSMQ,≤ 0.2
13,DVIS,≤ 0.2
14,YRRF,≤ 0.2
15,IRWT,≤ 0.2
16,NAIL,≤ 0.2
17,EHQR,≤ 0.2
18,NMKY,≤ 0.2
19,FINS,≤ 0.2
20,RGIM,≤ 0.2
21,QVAE,≤ 0.2
22,QVDK,≤ 0.2
23,GHTS,≤ 0.2
24,TKRG,≤ 0.2

row,Variant,one-hybrid fitness for binding parS DNA
1,KDEG,≤ 0.2
2,FMTR,≤ 0.2
3,AQEI,≤ 0.2
4,KREW,≤ 0.2
5,LQCA,≤ 0.2
6,WCFG,≤ 0.2
7,LSIR,≤ 0.2
8,TRLS,≤ 0.2
9,VYAT,≤ 0.2
10,LPDV,≤ 0.2
11,QSDI,≤ 0.2
12,IPAC,≤ 0.2
13,QNDD,≤ 0.2
14,GLQV,≤ 0.2
15,QQSA,≤ 0.2
16,GVEG,≤ 0.2
17,HWSA,≤ 0.2
18,GCRC,≤ 0.2
19,SPNP,≤ 0.2
20,WALP,≤ 0.2
21,KCLR,≤ 0.2
22,ASDK,≤ 0.2
23,VISG,≤ 0.2
24,KCYT,≤ 0.2

row,Variant,one-hybrid fitness for binding parS DNA
1,RFTL,≤ 0.2
2,ARPF,≤ 0.2
3,EMMG,≤ 0.2
4,NEDS,≤ 0.2
5,HPGT,≤ 0.2
6,QCGT,≤ 0.2
7,WSYC,≤ 0.2
8,SHHL,≤ 0.2
9,RVGP,≤ 0.2
10,NLQN,≤ 0.2
11,KASS,≤ 0.2
12,SILY,≤ 0.2
13,CDPG,≤ 0.2
14,NSLT,≤ 0.2
15,ERTH,≤ 0.2
16,KLPF,≤ 0.2
17,IVDR,≤ 0.2
18,EQMC,≤ 0.2
19,CIVP,≤ 0.2
20,SAPA,≤ 0.2
21,SEPI,≤ 0.2
22,PIIL,≤ 0.2
23,ADMV,≤ 0.2
24,PVWS,≤ 0.2

row,Variant,one-hybrid fitness for binding parS DNA
1,SSIT,≤ 0.2
2,AQCY,≤ 0.2
3,QRYM,≤ 0.2
4,DWSG,≤ 0.2
5,SKEI,≤ 0.2
6,LWPG,≤ 0.2
7,MKHF,≤ 0.2
8,WLKL,≤ 0.2
9,HTNS,≤ 0.2
10,ELLV,≤ 0.2
11,QKGK,≤ 0.2
12,RDMR,≤ 0.2
13,QTGN,≤ 0.2
14,LRSE,≤ 0.2
15,QGTC,≤ 0.2
16,MWSG,≤ 0.2
17,VLPD,≤ 0.2
18,SYTI,≤ 0.2
19,LKMR,≤ 0.2
20,WGRW,≤ 0.2
21,QAES,≤ 0.2
22,QCWR,≤ 0.2
23,DPHN,≤ 0.2
24,QCHD,≤ 0.2

row,Variant,one-hybrid fitness for binding parS DNA
1,WSKR,≤ 0.2
2,TWMS,≤ 0.2
3,QVRS,≤ 0.2
4,NLGS,≤ 0.2
5,QWCF,≤ 0.2
6,QWKG,≤ 0.2
7,NSYS,≤ 0.2
8,VHMV,≤ 0.2
9,LEQT,≤ 0.2
10,MYRK,≤ 0.2
11,DRPL,≤ 0.2
12,ASIY,≤ 0.2
13,RWAW,≤ 0.2
14,MWPT,≤ 0.2
15,PSTK,≤ 0.2
16,YASL,≤ 0.2
17,GLLG,≤ 0.2
18,KRFC,≤ 0.2
19,VLLI,≤ 0.2
20,PQVC,≤ 0.2
21,DNWR,≤ 0.2
22,WYSV,≤ 0.2
23,KDKE,≤ 0.2
24,VLPS,≤ 0.2

row,Variant,one-hybrid fitness for binding parS DNA
1,ANYF,≤ 0.2
2,RHND,≤ 0.2
3,MQVQ,≤ 0.2
4,EPVT,≤ 0.2
5,MGST,≤ 0.2
6,ACDY,≤ 0.2
7,YYWS,≤ 0.2
8,HAML,≤ 0.2
9,DFID,≤ 0.2
10,LGQL,≤ 0.2
11,PLAR,≤ 0.2
12,HDSL,≤ 0.2
13,THCE,≤ 0.2
14,YPIT,≤ 0.2
15,IIYI,≤ 0.2
16,PYIE,≤ 0.2
17,QGEC,≤ 0.2
18,KEPT,≤ 0.2
19,TGTH,≤ 0.2
20,KYDR,≤ 0.2
21,LICV,≤ 0.2
22,NPPK,≤ 0.2
23,NPFT,≤ 0.2
24,SDKR,≤ 0.2

row,Variant,one-hybrid fitness for binding parS DNA
1,GCIC,≤ 0.2
2,RYPS,0.635
3,CGVC,≤ 0.2
4,QRIA,≤ 0.2
5,LVVT,≤ 0.2
6,TEYT,≤ 0.2
7,EWGC,≤ 0.2
8,HTYW,≤ 0.2
9,LHAA,≤ 0.2
10,DETR,≤ 0.2
11,GTTS,≤ 0.2
12,LTTR,≤ 0.2
13,SAQG,≤ 0.2
14,STYY,≤ 0.2
15,QADL,≤ 0.2
16,IKYW,≤ 0.2
17,MKNI,≤ 0.2
18,RSQP,≤ 0.2
19,LLAR,≤ 0.2
20,TSGG,≤ 0.2
21,LYNC,≤ 0.2
22,MMWS,≤ 0.2
23,AAKL,≤ 0.2
24,KKKG,≤ 0.2

row,Variant,one-hybrid fitness for binding parS DNA
1,FSGR,≤ 0.2
2,PTSL,≤ 0.2
3,AKHA,≤ 0.2
4,RTQH,0.332
5,WSDE,≤ 0.2
6,EHAY,≤ 0.2
7,ADLC,≤ 0.2
8,NIVA,≤ 0.2
9,QDSL,≤ 0.2
10,VCFG,≤ 0.2
11,AMCG,≤ 0.2
12,WSKV,≤ 0.2
13,AFGL,≤ 0.2
14,MHMS,≤ 0.2
15,AAVS,≤ 0.2
16,SRET,≤ 0.2
17,ASAC,≤ 0.2
18,FHRF,≤ 0.2
19,WAMH,≤ 0.2
20,IANR,≤ 0.2
21,GMVR,≤ 0.2
22,WHQC,≤ 0.2
23,NSLA,0.226
24,RCLY,0.49

row,Variant,one-hybrid fitness for binding parS DNA
1,QESL,≤ 0.2
2,EVNG,≤ 0.2
3,NSGL,≤ 0.2
4,EMDI,≤ 0.2
5,ADKS,≤ 0.2
6,CVSG,≤ 0.2
7,PTDP,≤ 0.2
8,ISMR,≤ 0.2
9,LGVQ,≤ 0.2
10,AWST,≤ 0.2
11,MGQS,≤ 0.2
12,SMRY,≤ 0.2
13,ADPC,≤ 0.2
14,FLRC,≤ 0.2
15,QTDG,≤ 0.2
16,DRTT,≤ 0.2
17,QPLF,≤ 0.2
18,QHSY,≤ 0.2
19,HWNC,≤ 0.2
20,VCKA,≤ 0.2
21,MRGC,≤ 0.2
22,GHIC,≤ 0.2
23,HQPS,≤ 0.2
24,IHEE,≤ 0.2

row,Variant,one-hybrid fitness for binding parS DNA
1,SWPA,≤ 0.2
2,VNNC,≤ 0.2
3,GHAL,≤ 0.2
4,LSAY,≤ 0.2
5,RHWF,≤ 0.2
6,RVNH,≤ 0.2
7,YPST,≤ 0.2
8,QFPT,≤ 0.2
9,FGYL,≤ 0.2
10,KEHD,≤ 0.2
11,RWIN,≤ 0.2
12,TFHC,≤ 0.2
13,LLKP,≤ 0.2
14,HWWW,≤ 0.2
15,ESPV,≤ 0.2
16,TVCL,≤ 0.2
17,QKRI,≤ 0.2
18,TAYQ,≤ 0.2
